Results on seven molecules are retold here after patent publication US20210221875A1 (Chugai, published 2021).

Test [1] concerns the target T1, soluble human IL-6R (human, UniProt P08887 20-357).
T1 construct: also called hsIL-6R; recombinant human IL6R
T1 sequence: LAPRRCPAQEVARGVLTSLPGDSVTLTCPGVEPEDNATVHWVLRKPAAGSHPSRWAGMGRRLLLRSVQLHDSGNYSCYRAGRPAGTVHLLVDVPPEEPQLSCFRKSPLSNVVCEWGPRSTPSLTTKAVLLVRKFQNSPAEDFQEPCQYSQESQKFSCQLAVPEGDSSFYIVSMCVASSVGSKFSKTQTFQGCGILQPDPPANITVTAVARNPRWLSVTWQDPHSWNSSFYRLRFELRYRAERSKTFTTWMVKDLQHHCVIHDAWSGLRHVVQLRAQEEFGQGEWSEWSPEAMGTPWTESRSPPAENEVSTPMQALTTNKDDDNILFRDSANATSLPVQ
As to the kind of experiment: BLI (Octet HTX), molecule on Protein A sensor, hsIL-6R as analyte, 30 C. Background: BLI is a label-free optical method that tracks binding on a fibre tip over time.

Test [2] addresses T2, hsIL-6R-BAP1 (human, UniProt P08887 20-357, biotin on the AviTag sequence (BirA co-expression)).
T2 construct: hsIL-6R linked through a linker to a C-terminal AviTag; also called hsIL-6R-Avitag; biotinylated soluble human IL6R
T2 sequence: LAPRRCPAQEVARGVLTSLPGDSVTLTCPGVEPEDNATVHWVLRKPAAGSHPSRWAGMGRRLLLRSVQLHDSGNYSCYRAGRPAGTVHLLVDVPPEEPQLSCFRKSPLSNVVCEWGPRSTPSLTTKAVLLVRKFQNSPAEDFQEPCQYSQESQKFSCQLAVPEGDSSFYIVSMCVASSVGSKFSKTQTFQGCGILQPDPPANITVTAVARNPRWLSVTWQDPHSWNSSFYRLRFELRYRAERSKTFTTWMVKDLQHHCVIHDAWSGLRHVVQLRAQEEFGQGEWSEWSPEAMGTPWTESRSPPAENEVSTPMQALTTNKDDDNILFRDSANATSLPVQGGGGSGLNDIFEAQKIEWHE
In words: BLI (Octet HTX), hsIL-6R-BAP1 on streptavidin sensor, protease-untreated sample, 30 C.

Test [3] deals with T3, biotinylated plexin A1 (human, UniProt Q9UIW2 27-1253, biotin on the AviTag sequence (BirA co-expression)).
T3 construct: extracellular region of plexin A1 linked to AviTag and FLAG tag; also called biotin-labeled human plexin A1; human plexin A1
In words: BLI (Octet), in the same way as in Example 3.

B1: IL6R90-G1m/VK1-39-k0MT (antibody, human IgG1, kappa)
heavy: EVQLVESGGGLVQPGGSLRLSCAASGFTFDDYGMSWVRQAPGKALEWVSAISWNGNNTYYTESMKGRFTISRDNAKNTLYLQMNSLRPEDTAVYYCVKGSTAIVGVPPTYPDEYDYWGQGTLVTVSS[left out - human IgG1 constant region]
light: DIQMTQSPSSLSASVGDRVTITCRASQSISSYLNWYQQKPGKAPKLLIYAASSLQSGVPSRFSGSGSGTDFTLTISSLQPEDFATYYCLQFDSYPLTFGGGTKVEIKRTVAAPSVFIFPPSDEQLKSGTASVVCLLNNFYPREAKVQWKVDNALQSGNSQESVTEQDSKDSTYSLSSTLTLSKADYEKHKVYACEVTHQGLSSPVTKSFNRGEC
notes: IgG antibody-like molecule: anti-human IL6R VHH IL6R90 fused with human IgG1 CH1-hinge-CH2-CH3, with a human germline light chain
In the case of B1, the binding result in test [1] was “no binding”.

B2: IL6R90H1006/VK1-39-k0MT (antibody, human IgG1, kappa)
heavy: EVQLVESGGGLVQPGGSLRLSCAASGFTFDDYGMSWVRQAPGKALEWVSAISWNGNNTYYTESMKGRFTISRDNAKNTLYLQMNSLRPEDTAVYYCVKGSTAIVGVPPTYPDEYDYWGQGTLVTVSSASTKSGGSGLSGRSDNHGSSGGGPSVFPLAPSSKSTSGGTAALGCLVKDYFPEPVTVSWNSGALTSGVHTFPAVLQSSGLYSLSSVVTVPSSSLGTQTYICNVNHKPSNTKVDKKV[left out - human IgG1 Fc]
light: DIQMTQSPSSLSASVGDRVTITCRASQSISSYLNWYQQKPGKAPKLLIYAASSLQSGVPSRFSGSGSGTDFTLTISSLQPEDFATYYCLQFDSYPLTFGGGTKVEIKRTVAAPSVFIFPPSDEQLKSGTASVVCLLNNFYPREAKVQWKVDNALQSGNSQESVTEQDSKDSTYSLSSTLTLSKADYEKHKVYACEVTHQGLSSPVTKSFNRGEC
Turning to B2, the binding result in test [2] was “no binding”.

B3: IL6R90H1005/VK1-39-k0MT (antibody, human IgG1, kappa)
heavy: EVQLVESGGGLVQPGGSLRLSCAASGFTFDDYGMSWVRQAPGKALEWVSAISWNGNNTYYTESMKGRFTISRDNAKNTLYLQMNSLRPEDTAVYYCVKGSTAIVGVPPTYPDEYDYWGQGTLVTVSSASTKLSGRSDNHGGPSVFPLAPSSKSTSGGTAALGCLVKDYFPEPVTVSWNSGALTSGVHTFPAVLQSSGLYSLSSVVTVPSSSLGTQTYICNVNHKPSNTKVDKKV[left out - human IgG1 Fc]
light: DIQMTQSPSSLSASVGDRVTITCRASQSISSYLNWYQQKPGKAPKLLIYAASSLQSGVPSRFSGSGSGTDFTLTISSLQPEDFATYYCLQFDSYPLTFGGGTKVEIKRTVAAPSVFIFPPSDEQLKSGTASVVCLLNNFYPREAKVQWKVDNALQSGNSQESVTEQDSKDSTYSLSSTLTLSKADYEKHKVYACEVTHQGLSSPVTKSFNRGEC
Take B3: the binding result in test [2] is “no binding”.

B4: IL6R90H1002/VK1-39-k0MT (antibody, human IgG1, kappa)
heavy: EVQLVESGGGLVQPGGSLRLSCAASGFTFDDYGMSWVRQAPGKALEWVSAISWNGNNTYYTESMKGRFTISRDNAKNTLYLQMNSLRPEDTAVYYCVKGSTAIVGVPPTYPDEYDYWGQGTLVTVSSASSGGSGLSGRSDNHGSSGGTKGPSVFPLAPSSKSTSGGTAALGCLVKDYFPEPVTVSWNSGALTSGVHTFPAVLQSSGLYSLSSVVTVPSSSLGTQTYICNVNHKPSNTKVDKKV[left out - human IgG1 Fc]
light: DIQMTQSPSSLSASVGDRVTITCRASQSISSYLNWYQQKPGKAPKLLIYAASSLQSGVPSRFSGSGSGTDFTLTISSLQPEDFATYYCLQFDSYPLTFGGGTKVEIKRTVAAPSVFIFPPSDEQLKSGTASVVCLLNNFYPREAKVQWKVDNALQSGNSQESVTEQDSKDSTYSLSSTLTLSKADYEKHKVYACEVTHQGLSSPVTKSFNRGEC
Regarding B4, in test [2], the binding result is “no binding”.

B5: IL6R90H1004/VK1-39-k0MT (antibody, human IgG1, kappa)
heavy: EVQLVESGGGLVQPGGSLRLSCAASGFTFDDYGMSWVRQAPGKALEWVSAISWNGNNTYYTESMKGRFTISRDNAKNTLYLQMNSLRPEDTAVYYCVKGSTAIVGVPPTYPDEYDYWGQGTLVTVSGGSGLSGRSDNHGSSGGSS[left out - human IgG1 constant region]
light: DIQMTQSPSSLSASVGDRVTITCRASQSISSYLNWYQQKPGKAPKLLIYAASSLQSGVPSRFSGSGSGTDFTLTISSLQPEDFATYYCLQFDSYPLTFGGGTKVEIKRTVAAPSVFIFPPSDEQLKSGTASVVCLLNNFYPREAKVQWKVDNALQSGNSQESVTEQDSKDSTYSLSSTLTLSKADYEKHKVYACEVTHQGLSSPVTKSFNRGEC
Consider B5, for which, in test [2], the binding result was “no binding”.

B6: PX02-R4_004-G1mISHI01/VK1-39-k0MT (antibody, human IgG1, kappa)
heavy: QVQLVESGGGLVQPGGSLRLSCTASGISFSISTMGWYRQAPGKQRELVATITSGGEAYYANSMKDRFTISRDNAENTVYLQMNRLKPEDSAVYYCNTKFPWSTDWDSRGQGTQVTVSGGSGLSGRSDNHGSSGGSS[left out - human IgG1 constant region]
light: DIQMTQSPSSLSASVGDRVTITCRASQSISSYLNWYQQKPGKAPKLLIYAASSLQSGVPSRFSGSGSGTDFTLTISSLQPEDFATYYCLQFDSYPLTFGGGTKVEIKRTVAAPSVFIFPPSDEQLKSGTASVVCLLNNFYPREAKVQWKVDNALQSGNSQESVTEQDSKDSTYSLSSTLTLSKADYEKHKVYACEVTHQGLSSPVTKSFNRGEC
notes: uncleaved; light chain printed once for the five molecules
With B6, in test [3], the binding result is reported as “no binding”.

B7: PX02-R2_001-G1mISHI01/VK1-39-k0MT (antibody, human IgG1, kappa)
heavy: QLQLVESGGGLVQPGGSLRLSCTASGISFSISTMGWYRQAPGKQRELVATITSGGEAYYANSMKDRFTISRDNAENTVYLQMNRLKPEDSAVYYCNTKFPWSTDWDSRGQGTQVTVSGGSGLSGRSDNHGSSGGSS[left out - human IgG1 constant region]
light: DIQMTQSPSSLSASVGDRVTITCRASQSISSYLNWYQQKPGKAPKLLIYAASSLQSGVPSRFSGSGSGTDFTLTISSLQPEDFATYYCLQFDSYPLTFGGGTKVEIKRTVAAPSVFIFPPSDEQLKSGTASVVCLLNNFYPREAKVQWKVDNALQSGNSQESVTEQDSKDSTYSLSSTLTLSKADYEKHKVYACEVTHQGLSSPVTKSFNRGEC
notes: uncleaved IgG antibody-like molecule with anti-human plexin A1 VHH in place of VH
For B7, the binding result in test [3] was “no binding”.
